The campaign covered roughly 140,000 compounds. About 240 (0.17%) were called active. The shares of active, inactive and inconclusive entries below differ from those in the screen. Calls come from the whole dose curve; as a rule, active = well fitted inhibition curve with a large enough effect; inconclusive = small, poorly fitted or top-dose-only effect; inactive = no such curve, though single readings can be large or run the other way. Potencies of inconclusive entries are doubtful fits and often do not repeat.
Assay: Primary qHTS assay for inhibitors of alpha-synuclein gene (SNCA) expression; note: nearly all actives have a fitted effect of over 45% in size;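 for activity change, negative = inhibition: plate controls were DMSO cells for no effect and cell-free wells for full effect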
Conditions: HEK-293 SNCA-luciferase knock-in, luminescence, 24 h; activity change, negative = inhibition: at 57.2 µM (top of the series) unless noted
Potency is the fitted concentration of half-maximal effect; tags give direction and shape of the fitted curve.

Structure (SMILES) | Potency | activity change, negative = inhibition
O=C(OCc1ccccc1)N1CCOCC12CCN(Cc1ccccc1F)CC2 | inconclusive: 12.6 µM [inhibitor, partial curve, poor fit] | 
Cc1ccc(CC(=O)N2c3ccccc3CC2c2nnc(C3CCOCC3)o2)cc1 (stereo unspecified) |  | inactive: -3.99%
COc1cccc(-c2noc(CCCc3nc(C4CCOC4)no3)n2)c1 (stereo unspecified) |  | inactive: 14.3%
COc1ccccc1CCNC(=O)C1CC(c2ccc(F)c(C)c2)CN(C(=O)C2CC2)C1 (stereo unspecified) |  | inactive: -22.9%
CCC(C)NC(=O)N1CCCN(S(=O)(=O)c2ccccc2)CCC(=O)NCC1 (stereo unspecified) |  | inactive: -13.4%
Cn1cnc(S(=O)(=O)N2CCC3(CC2)NCCc2c3[nH]c3ccccc23)c1 | inconclusive: 39.8 µM [inhibitor, single point] | 
COc1ccc(N(CC(=O)NCCc2ccc(C)cc2)S(=O)(=O)c2c(C)nn(C)c2C)cc1 | inconclusive: 39.8 µM [inhibitor, single point] | 
O=C(Nc1ccc(=O)n2c1[C@@H]1C[C@@H](CN(C(=O)Nc3ccc(F)cc3)C1)C2)c1ccc2c(c1)OCO2 | inconclusive: 2.82 µM [inhibitor, full curve] | 
CC#CCn1cc2c3c(cccc31)[C@H](CC(C)C)N[C@H](C(=O)NCCC)C2 | inconclusive: 28.2 µM [inhibitor, partial curve, poor fit] | 
OCC(O)C(O)C(O)CO (stereo unspecified) | inconclusive: 30.4 µM [inhibitor, single point] | 
Cc1ccc([S+](=O)([O-])N2CCCC(C(=O)N3CCC(c4ccccc4)CC3)C2)cc1 (stereo unspecified) | inconclusive: 22.4 µM [inhibitor, single point] | 
O=c1c2cc(-c3ccc(F)cc3)nn2ccn1CC(O)c1ccc(F)cc1 (stereo unspecified) |  | inactive: -13.2%
O=C1N(CCCCOc2ccccc2)c2ccccc2NC12CCNCC2 | inconclusive: 39.8 µM [inhibitor, single point] | 
COC(=O)c1ccccc1NC(=O)Cn1nnc(-c2ccc(OC)cc2)n1 | inconclusive: 39.8 µM [inhibitor, single point] | 
O=C(CCCn1c(=O)[nH]c2ccc(Br)cc2c1=O)N1CCN(c2cccc(Cl)c2)CC1 | inconclusive: 35.5 µM [inhibitor, partial curve, poor fit] | 
Cc1cccc(CN2CCc3ncc(C(=O)NCCC(C)C)n3CC2)c1 | inconclusive: 56.2 µM [inhibitor, single point] | 
CC(C)(C)c1ccc(-c2cc(C[C@H]3CNCC[C@H]3CC(=O)N3CCC(n4c(=O)[nH]c5ccccc54)CC3)no2)cc1 | inconclusive: 39.8 µM [inhibitor, single point] | 
COc1ccc(C(=O)NC2CCN(c3cc(C(F)(F)F)ncn3)CC2)c(C)c1 | inconclusive: 2 µM [inhibitor, partial curve, poor fit] | 
O=C(O)COc1ccc(-c2nccc3c2C(=O)N(Cc2cccc(C(F)(F)F)c2)CC(CNC(=O)c2cccc(Cl)c2)O3)cc1 (stereo unspecified) |  | inactive: -26.5%
COc1ccc(CN2CCC[C@H]2c2nc(-c3ccc(-n4ccnc4)nc3)no2)c(OC)c1OC | inconclusive: 39.8 µM [inhibitor, single point] | 
Cc1ccc(Nc2ccnc(N3CCCC3C(=O)NCc3cccc(Cl)c3)n2)cc1 (stereo unspecified) |  | inactive: -4.43%

Structure (SMILES) | Potency | activity change, negative = inhibition
O=C(NC1CCN(c2ccnc3ccnn23)C1)c1ccccc1Cl (stereo unspecified) | inconclusive: 20 µM [inhibitor, partial curve, poor fit] | 
CCN1C(=O)CN(C(=O)c2ccsc2)CC12CCOCC2 |  | inactive: -19.6%
CS(=O)(=O)N[C@H]1C[C@H]2C(=O)Nc3ccc(-c4ccc5c(c4)OCO5)cc3C(=O)N2C1 |  | inactive: -18.4% [at 87.6 µM]
Cc1ccc(CNS(=O)(=O)c2c(C)nc3sc(C)cn3c2=O)cc1 |  | inactive: -0.145%
OC[C@@H]1CNC[C@H]1C1CCN(Cc2cccc(Cl)c2F)CC1 |  | inactive: 17.5%
CCc1ccc(-c2nc(CS(=O)CC(=O)NCc3ccc(F)cc3)c(C)o2)cc1 (stereo unspecified) | inconclusive: 0.794 µM [inhibitor, partial curve, poor fit] | 
Cc1cccc(C)c1-c1nc(C(=O)NC2CC2)n2ccccc12 |  | inactive: -7.31%
CCOc1ccccc1Oc1ncnc2c1oc1ccccc12 | inconclusive: 39.8 µM [inhibitor, single point] | 
Cc1nc(C)c(C(=O)N2CCCN(S(=O)(=O)c3ccccc3)CCC(=O)NCC2)s1 | inconclusive: 11.2 µM [inhibitor, partial curve] | 
CNC(=O)NC[C@H]1CCN(Cc2ccc(OC)c(OC)c2)C[C@H]1N(C)C | inconclusive: 39.8 µM [inhibitor, single point] | 
Cc1nc(-c2ccc(F)cc2)n(CC(=O)Nc2cccc(C(F)(F)F)c2)c(=O)c1CCO | inconclusive: 31.6 µM [inhibitor, single point] | 
CCc1ccccc1N(C)C(=O)c1nn(-c2ccc(OC)cc2)c(=O)c2c1c1ccccc1n2C | inconclusive: 39.8 µM [inhibitor, single point] | 
COc1ccc(Cl)cc1-c1ccc2c(c1)C(=O)N1CC[C@H](NC(=O)c3cccs3)C[C@H]1C(=O)N2 | inconclusive: 39.8 µM [inhibitor, single point] | 
COc1ccc2[nH]c3c(c2c1)CCNC31CCN(C(=O)c2cc(C)[nH]n2)CC1 | inconclusive: 25.1 µM [inhibitor, partial curve, poor fit] | 
Cc1cc(C)cc(NC(=O)C2CCN(C(=O)c3nnn4cc(C)[nH]c(=O)c34)CC2)c1 | inconclusive: 0.708 µM [inhibitor, single point] | 
OC[C@@H]1CN(Cc2ccccc2OC(F)(F)F)C[C@H]1c1ccncc1 | inconclusive: 3.55 µM [inhibitor, partial curve, poor fit] | 
COc1ccc2cc(C3CN(C(=O)c4cc(C(C)=O)n[nH]4)CCO3)ccc2c1 (stereo unspecified) |  | inactive: 73.9%
Cc1ccc2oc(C(=O)N3CCC(c4nc5ccccc5s4)CC3)c(C)c2c1 | inconclusive: 7.08 µM [inhibitor, single point] | 
COc1cccc(CC(=O)NCc2nnc3cc(-c4nc(C(C)C)no4)ccn23)c1 |  | inactive: -1.96%
CCCCn1c(=O)c(C(=O)N2CCN(C(=O)Cc3ccc(F)cc3)CC2)nc2cccnc21 |  | inactive: 10.2%
